In publication PMC4336329 (PLoS ONE, 2015):
Screen size: about 310,000 compounds; about 14,000 (4.5%) showed an effect of 50% or more. The effect is printed as a negative number. The list shows a part of the results.

molecular target: human ether-à-go-go-related gene (hERG) potassium channel (human, UniProt Q12809); test: primary screen, population patch clamp on CHO cells stably expressing hERG
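Note: peak tail current of the secondary pulse compared with the same well before compound.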

human ether-à-go-go-related gene (hERG) potassium channel, sequence (Q12809 whole entry, looked up): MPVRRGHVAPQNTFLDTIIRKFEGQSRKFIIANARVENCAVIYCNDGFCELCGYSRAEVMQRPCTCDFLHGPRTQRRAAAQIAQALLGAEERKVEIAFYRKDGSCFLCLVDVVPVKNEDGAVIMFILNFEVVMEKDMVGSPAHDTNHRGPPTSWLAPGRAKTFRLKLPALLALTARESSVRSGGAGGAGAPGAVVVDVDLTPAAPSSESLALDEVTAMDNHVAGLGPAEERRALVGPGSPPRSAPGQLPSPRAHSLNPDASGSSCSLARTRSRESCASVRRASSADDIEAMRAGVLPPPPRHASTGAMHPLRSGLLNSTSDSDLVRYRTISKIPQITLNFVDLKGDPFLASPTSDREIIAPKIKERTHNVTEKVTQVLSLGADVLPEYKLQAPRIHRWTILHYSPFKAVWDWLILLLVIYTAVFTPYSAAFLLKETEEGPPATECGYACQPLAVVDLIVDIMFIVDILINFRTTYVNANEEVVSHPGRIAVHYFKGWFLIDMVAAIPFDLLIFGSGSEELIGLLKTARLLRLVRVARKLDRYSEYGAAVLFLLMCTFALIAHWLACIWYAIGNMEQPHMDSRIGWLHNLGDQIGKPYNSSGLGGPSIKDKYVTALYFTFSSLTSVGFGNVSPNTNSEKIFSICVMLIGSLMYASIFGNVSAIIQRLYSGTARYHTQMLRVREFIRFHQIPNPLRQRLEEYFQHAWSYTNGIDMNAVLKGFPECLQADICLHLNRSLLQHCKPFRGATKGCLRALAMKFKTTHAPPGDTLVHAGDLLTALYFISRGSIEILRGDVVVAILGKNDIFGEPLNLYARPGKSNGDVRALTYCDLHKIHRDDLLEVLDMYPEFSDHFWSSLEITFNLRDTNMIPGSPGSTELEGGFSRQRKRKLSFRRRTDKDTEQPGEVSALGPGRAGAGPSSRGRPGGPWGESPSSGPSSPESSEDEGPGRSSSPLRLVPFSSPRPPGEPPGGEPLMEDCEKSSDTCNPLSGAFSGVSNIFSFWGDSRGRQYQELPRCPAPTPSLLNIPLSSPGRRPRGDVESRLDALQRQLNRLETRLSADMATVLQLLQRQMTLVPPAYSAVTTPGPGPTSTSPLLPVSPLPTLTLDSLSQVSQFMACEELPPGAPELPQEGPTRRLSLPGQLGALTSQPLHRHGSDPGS

| SMILES | hERG current change (%, negative = inhibition) at 10uM |
| --- | --- |
| COc1ccc2cnn(-c3ccc(C)cc3)c(=O)c2c1OC | -0.33% |
| COc1cc([N+](=O)[O-])ccc1NC(=O)CCCOc1ccccc1 | -23.8% |
| COc1ccccc1S(=O)(=O)CC(O)COc1ccc(C#N)cc1 (centres unmarked) | 8.16% |
| CC1CCc2nc(NC(=O)c3ccco3)sc2C1 (centres unmarked) | -15.8% |
| CC1C(=O)N2CCCc3cc(NC(=O)C(=O)NCCCc4ccccc4)cc1c32 (centres unmarked) | -28.4% |
| Cc1nnc(SCC(=O)N(CC(C)C)C2CCS(=O)(=O)C2)n1N (centres unmarked) | 11.7% |
| O=C(COc1ccc(Cl)cc1)N1CCCCC1 | -5.82% |
| CCCCN(CCCC)CCCOC(=O)c1ccc(N)cc1 | -40.9% |
| CCOC(=O)Cn1cc(/C=N/NC(=O)c2cc3ccccc3o2)c2ccccc21 | -15% |
| CC(C)C(C)(C#N)NC(=O)CSc1nncn1-c1ccccc1 (centres unmarked) | 15.4% |
| CCC1(c2ccccc2)C(=O)N(COC)C(=O)N(COC)C1=O | 3.91% |
| CC(OC(=O)CCN=C1NS(=O)(=O)c2ccccc21)C(=O)N(C)C1CCCCC1 (centres unmarked) | 11.7% |
| COc1cc(C(=O)N2CCCc3ccccc32)cc(OC)c1OC | 7.87% |
| Cc1ccc(C(=O)N/C(=C/c2ccco2)C(=O)NCCc2c[nH]c3ccccc23)cc1 | -46% |
| Cc1ccc(S(=O)(=O)N2CCC(=O)N(C(COCc3cccc(C(F)(F)F)c3)C(C)C)CC2)cc1 (centres unmarked) | -21.8% |
| COc1ccccc1NCc1ccc([N+](=O)[O-])s1 | -47.7% |
| CCOC(=O)c1cccc(C(=O)Nc2nc3ccc(OC)cc3s2)n1 | 23.5% |
| CCC(C)(C)n1nnnc1C(c1ccccc1F)N1CCN(C(=O)c2ccco2)CC1 (centres unmarked) | -13.9% |
| O=C(CSc1nc(-c2ccccc2)c(-c2ccccc2)[nH]1)NCC1CCCO1 (centres unmarked) | -0.72% |
| Cc1c(Br)c(C(F)(F)F)nn1CC(=O)NCc1ccccc1 | 31.8% |
| Fc1cccc(NC(=S)NCc2ccccc2Cl)c1 | 8.01% |
| Cc1nnc(NC(=O)c2cccc(S(=O)(=O)N3CCCC3)c2)s1 | 12.3% |
| N#Cc1ccsc1NC(=O)CN1CCN(c2ccc(O)cc2)CC1 | -19.5% |

| SMILES | hERG current change (%, negative = inhibition) at 10uM |
| --- | --- |
| CCOc1ccccc1N(CC(=O)N1CCCCCC1)S(=O)(=O)c1ccc(C)cc1 | -31.9% |
| O=C(Nc1cccc(O)c1)C1CC(c2ccc(Cl)cc2)=NO1 (centres unmarked) | -12.9% |
| O=C(CSc1ccc(-c2ccncc2)nn1)N1CCCC1 | -1.43% |
| O=C(NCCN1CCOCC1)/C(=C/c1ccc(F)cc1)NC(=O)c1ccccc1 | -67.8% |
| NC(=O)NC(=O)CSc1nnc(-c2ccc(Cl)cc2)n1CC1CCCO1 (centres unmarked) | 29.3% |
| O=C(NC(=S)N1CCCCC1)c1cccnc1 | 20.3% |
| COc1cccc(-c2cc(C(=O)NCC3CCCO3)c3cc(C)cc(C)c3n2)c1 (centres unmarked) | 18.8% |
| Cc1cc(CN2CCCCC2C(=O)Nc2ccc(Oc3cccnc3)cc2)oc1C (centres unmarked) | -31.1% |
| CCN(CC)CCN(C(=O)c1ccc([N+](=O)[O-])cc1)c1nc2c(OC)cccc2s1.Cl | -73.2% |
| COc1cccc(C(C(=O)NC2CCCC2)N(C(=O)c2ccco2)C2CC2)c1OC (centres unmarked) | 1.89% |
| Cc1occc1C(=O)NNC(=O)Nc1ccc(Cl)c(Cl)c1 | -4.8% |
| CCN(CC(=O)Nc1c(F)cccc1F)C(=O)COc1cccc2c1OC(C)(C)C2 | -7.88% |
| O=C(O)CCCC(=O)Nc1nc(-c2ccc(F)cc2)cs1 | 0.721% |
| O=C1c2ccc(Cl)cc2S(=O)(=O)c2cccc(C(=O)N3CCN(c4ncc(Br)cn4)CC3)c21 | -45.2% |
| O=C(NC(=S)Nc1ccc(N2CCCCC2)c(Cl)c1)c1cccs1 | -16.9% |
| Cc1cc2nc(-c3ccc(SCC(=O)Nc4ccc(S(=O)(=O)N5CCCC5)cc4)nc3)[nH]c2cc1C | 8.52% |
| CCCC(=O)NC(=S)Nc1ccc(C(C)=O)cc1 | 17.5% |
| Cl.Fc1cccc(Cl)c1CNC(c1ccccc1)c1ccccc1 | 14.1% |
| Cc1sc2ncnc(N/N=C/c3ccccc3O)c2c1C | -1.58% |
| N/C(=N\c1nc2c(c(=O)[nH]1)CCCC2)Nc1ccccc1 | -9.47% |
| CCCOc1cccc(C(=O)Nc2cccc(NC(=O)c3ccco3)c2)c1 | -21.8% |
| COc1cc(CCC(=O)OCC(=O)Nc2ccc(F)cc2F)cc(OC)c1OC | 9.29% |
| CC(NC(=O)CNC(=O)c1ccco1)c1ccc(S(N)(=O)=O)cc1 (centres unmarked) | 21.6% |

| SMILES | hERG current change (%, negative = inhibition) at 10uM |
| --- | --- |
| O=C(Nc1ccccc1)c1cc2ccccc2[nH]1 | 3.82% |
| O=C(NCC1CC1)Nc1cccc(C(F)(F)F)c1 | 9.59% |
| COc1ccc(C(=O)COC(=O)CN2C(=O)c3ccccc3C2=O)c(OC)c1 | 5.3% |
| CCc1ccccc1N1C(=O)C2C3C=CC(CC3)C2C1=O (centres unmarked) | 15.5% |
| O=C(CCNS(=O)(=O)c1cccc2nonc12)NCc1cccs1 | -6.21% |
| COc1cc(/C=N/NC(=O)c2ccncc2)ccc1OC(=O)c1cccc(Br)c1 | -26% |
| Cc1ccc(S(=O)(=O)NNC(=O)c2csnn2)cc1 | 1.7% |
| CC1=C(C)CC(C(=O)NC2CCN(C(C)C)CC2)C(C(=O)O)C1 (centres unmarked) | 15.3% |
| CCOc1ccc(N2Nc3n[nH]c(N)c3N2)cc1 | 12.9% |
| Cc1c(Cl)c([N+](=O)[O-])nn1CC(=O)NCC(C)C | 8.29% |
| CCSc1nc2sc3c(c2c(=O)n1-c1ccc(OC)cc1)CCN(C)C3 | 5.2% |
| O=C(NC12CC3CC(CC(C3)C1)C2)c1ccc(-c2cccc(Cl)c2)o1 | 23.1% |
| COc1ccc(CN(C)C(=O)c2ccc(NS(=O)(=O)c3ccccc3)cc2)c(OC)c1 | -7.77% |
| Cc1ccc(N(C(=O)Cn2nnc3ccccc32)C(C(=O)NC2CCCCC2)c2cn(C)nc2C)cc1 (centres unmarked) | -0.391% |
| COc1ccc(-c2ccc(OC)cc2)cc1 | 7.51% |
| CCCCN1C(=O)C(C2c3ccccc3C(=O)N2Cc2ccccc2)C(=O)NC1=S (centres unmarked) | -9.08% |
| O=C(Cc1cccs1)NCCc1ccc(F)cc1 | 17.7% |
| CCCCCCNC(=O)CC(c1ccccc1)c1cc(Br)ccc1O (centres unmarked) | -3.26% |
| Cc1ccc(C(=O)NC(=S)NNC(=O)c2ccccc2)cc1 | 31.1% |
| CC(C)OCCCNC(=O)c1ccc2c(c1)NC(=O)c1ccccc1S2 | 8.12% |
| COc1ccccc1N1CCN(C2CCN(C3CCC(c4ccccc4)CC3)CC2)CC1.O=C(O)C(=O)O (centres unmarked) | -74.1% |
| CC(C)OC(=O)c1cccc(C(=O)OCc2ccco2)n1 | 10.9% |
| COCCn1c(SCC(=O)Nc2ccccc2OC)nc2ccccc2c1=O | -40.1% |

| SMILES | hERG current change (%, negative = inhibition) at 10uM |
| --- | --- |
| Cc1cccc(NC(=O)CCCc2ccccc2)c1 | 3.57% |
| CC(C)S(=O)(=O)N1CCN(c2ccnc3cc(Cl)ccc23)CC1 | -71.6% |
| Cc1ccc(-c2cc(Cc3ccc(N(C)C)cc3)c(=O)[nH]n2)cc1 | 14.5% |
| Cc1ccc(S(=O)(=O)N(C)CC(=O)Nc2ccccc2N2CCCC2)cc1 | -7.31% |
| COc1ccccc1OCc1ccc(C(=O)OCC2CCCO2)o1 (centres unmarked) | -2.54% |
| COc1ccc(/C=N/N=C2/CC(C)(C)Cc3n[nH]c(=O)cc32)cc1 | 8.64% |
| COCCNC(=O)c1cnn2c(C(F)F)cc(-c3ccccc3)nc12 | 25.2% |
| CC(C)(CN1CCN(Cc2ccccc2)CC1)NS(=O)(=O)c1ccc(Cl)cc1 | -74.7% |
| COc1ccccc1N1CCN(CCOc2c(OC)cccc2OC)CC1.Cl | -34.6% |
| O=C(CCCn1c(=O)[nH]c2ccsc2c1=O)N1CCN(Cc2ccc3c(c2)OCO3)CC1 | -18.8% |
| CC1CC(C)CN(S(=O)(=O)c2ccc3c(c2)CC(=O)N3)C1 (centres unmarked) | -20.8% |
| Cc1[nH]c2ccccc2c1Cc1n[nH]c(=S)n1C | 21.1% |
| COc1cc(NC(=O)CN2C(=O)NC(c3ccccc3)(c3ccccc3)C2=O)c(C)cc1[N+](=O)[O-] | -22.7% |
| O=C(N/N=C/c1cccc(O)c1)c1ccc(COc2ccc3c(c2)CCC3)o1 | 6.88% |
| COc1cc(C(=O)Nc2ccc3nc(N4CCOCC4)sc3c2)cc(OC)c1OC | -1.67% |
| CCCC(=O)Nc1ccc2oc(-c3cncc(Br)c3)nc2c1 | 7.03% |
| COC(=O)N1C(=O)[C@](c2ccc(OC)cc2)(C(C)C)N1C(=O)OC | 8.8% |
| Cc1ccc(C(=O)N/C(=C\c2cccs2)C(=O)NCCc2c[nH]c3ccccc23)cc1C | -21.2% |
| COc1ccc(C(=O)NCc2csc(C(C)C)n2)cc1OC1CCN(C(C)=O)CC1 | 3.77% |
| CN(C)S(=O)(=O)c1cccc(NC(=O)COC(=O)CCC(=O)c2cccs2)c1 | 1.41% |
